Among the data in patent publication US10385089B2, “Thionucleoside derivative or salt thereof, and pharmaceutical composition” (FUJIFILM Corporation, priority 2014, dated 2019) are IC50 values, retold here.

Structures are written as SMILES. Some results are limits rather than exact numbers.

The subject of this assay is gemcitabine-resistant strain of pancreatic cancer cell line Capan-1 (ATCC Number: HTB-79). Put plainly: Gemcitabine-resistant cell growth inhibition test (CellTiter Glo, total cellular ATP). As to conditions: Homo sapiens, CAPAN-1, 72 h, read-out: Growth inhibitory activity IC50 (μmol/L).

For `C[C@H](NP1(=O)OC[C@H]2S[C@@H](n3ccc(N)nc3=O)[C@@H](F)[C@@H]2O1)C(=O)OCc1ccccc1` (mixture of isomers) [Example 29-1, (2S)-benzyl 2-(((2RS,4aR,6R,7S,7aS)-6-(4-amino-2-oxopyrimidin-1(2H)-yl)-7-fluoro-2-oxidotetrahydro-4H-thieno[3,2-d][1,3,2]dioxaphosphinin-2-yl)amino)propanoate], the IC50 is 2 to 5 µmol/L.
The figure for `CC(C)(C)C(=O)OCCSSCCOP(=O)(OCCSSCCOC(=O)C(C)(C)C)OC[C@H]1S[C@@H](n2ccc(N)nc2=O)[C@@H](F)[C@@H]1O` [Example 13-1, ((2R,3S,4S,5R)-5-(4-amino-2-oxopyrimidin-1(2H)-yl)-4-fluoro-3-hydroxytetrahydrothiophen-2-yl)methyl bis(2-((2-pivaloyloxyethyl)disulfanyl)ethyl) phosphate] is 2 to 5 µmol/L; for `Nc1ccn([C@@H]2S[C@H](COP(=O)(OCCSSCCO)OCCSSCCO)[C@@H](O)[C@@H]2F)c(=O)n1` [Example 12-1, ((2R,3S,4S,5R)-5-(4-amino-2-oxopyrimidin-1(2H)-yl)-4-fluoro-3-hydroxytetrahydrothiophen-2-yl)methyl bis(2-((2-hydroxyethyl)disulfanyl)ethyl) phosphate] it is 5 to 15 µmol/L.
For `CC(C)OC(=O)[C@H](C)NP(=O)(OCOC(=O)C(C)(C)C)OC[C@H]1S[C@@H](n2ccc(N)nc2=O)[C@@H](F)[C@@H]1O` (mixture of isomers) [Example 7-3-1, (((RS)-(((2R,3S,4S,5R)-5-(4-amino-2-oxopyrimidin-1(2H)-yl)-4-fluoro-3-hydroxytetrahydrothiophen-2-yl)methoxy)(((S)-1-isopropoxy-1-oxopropan-2-yl)amino)phosphoryl)oxy)methyl pivalate], the IC50 fell in the range of 5 to 15 µmol/L.
In the case of `CC(C)C(=O)SCCOP(=O)(OCCSC(=O)C(C)C)OC[C@H]1S[C@@H](n2ccc(N)nc2=O)[C@@H](F)[C@@H]1O` [Example 9-1, ((2R,3S,4S,5R)-5-(4-amino-2-oxopyrimidin-1(2H)-yl)-4-fluoro-3-hydroxytetrahydrothiophen-2-yl)methyl bis(S-isobutyryl-2-mercaptoethan-1-yl) phosphate], the IC50 was 2 to 5 µmol/L.
The figure for `CC(C)(C)C(=O)OCOP(=O)(OCCSC(=O)C(C)(C)C)OC[C@H]1S[C@@H](n2ccc(N)nc2=O)[C@@H](F)[C@@H]1O` (mixture of isomers) [Example 10-1, (((RS)-(((2R,3S,4S,5R)-5-(4-amino-2-oxopyrimidin-1(2H)-yl)-4-fluoro-3-hydroxytetrahydrothiophen-2-yl)methoxy)(2-(pivaloylthio)ethoxy)phosphoryl)oxy)methyl pivalate] is 2 to 5 µmol/L.
Then `CC(C)OC(=O)[C@H](C)NP1(=O)OC[C@H]2S[C@@H](n3ccc(N)nc3=O)[C@@H](F)[C@@H]2O1` (mixture of isomers) [Example 29-2, (2S)-isopropyl 2-(((2RS,4aR,6R,7S,7aS)-6-(4-amino-2-oxopyrimidin-1(2H)-yl)-7-fluoro-2-oxidotetrahydro-4H-thieno[3,2-d][1,3,2]dioxaphosphinin-2-yl)amino)propanoate], with 2 to 5 µmol/L; and `C[C@H](NP(=O)(OC[C@H]1O[C@@H](n2ccc(N)nc2=O)C(F)(F)[C@@H]1O)Oc1ccccc1)C(=O)OCc1ccccc1` (mixture of isomers) [Comparative Example 1, (2S)-benzyl 2-(((RS)-(((2R,3R,5R)-5-(4-amino-2-oxopyrimidin-1(2H)-yl)-4,4-difluoro-3-hydroxytetrahydrofuran-2-yl)methoxy)(phenoxy)phosphoryl)amino)propanoate, reference compound], with above 15 µmol/L.
Then `CC(C)OC(=O)OCOP(=O)(OCCSC(=O)C(C)(C)C)OC[C@H]1S[C@@H](n2ccc(N)nc2=O)[C@@H](F)[C@@H]1O` (mixture of isomers) [Example 10-2, S-(2-(((RS)-(((2R,3S,4S,5R)-5-(4-amino-2-oxopyrimidin-1(2H)-yl)-4-fluoro-3-hydroxytetrahydrothiophen-2-yl)methoxy)(((isopropoxycarbonyl)oxy)methoxy)phosphoryl)oxy)ethyl) 2,2-dimethylpropanethioate], with 2 to 5 µmol/L; and `C[C@H](NP(=O)(OCCSC(=O)C(C)(C)C)OC[C@H]1S[C@@H](n2ccc(N)nc2=O)[C@@H](F)[C@@H]1O)C(=O)OCc1ccccc1` (mixture of isomers) [Example 7-3-3, (2S)-benzyl 2-(((RS)-(((2R,3S,4S,5R)-5-(4-amino-2-oxopyrimidin-1(2H)-yl)-4-fluoro-3-hydroxytetrahydro-thiophen-2-yl)methoxy)(2-(pivaloylthio)ethoxy)phosphoryl)amino)propanoate], with 5 to 15 µmol/L.
Consider `CC(C)OC(=O)OCOP(=O)(N[C@@H](C)C(=O)OCc1ccccc1)OC[C@H]1S[C@@H](n2ccc(N)nc2=O)[C@@H](F)[C@@H]1O` (mixture of isomers) [Example 7-1, (2S)-benzyl 2-(((RS)-(((2R,3S,4S,5R)-5-(4-amino-2-oxopyrimidin-1(2H)-yl)-4-fluoro-3-hydroxytetrahydrothiophen-2-yl)methoxy)(((isopropoxycarbonyl)oxy)methoxy)phosphoryl)amino)propanoate], for which the IC50 was 5 to 15 µmol/L.
Turning to `C[C@H](NP(=O)(OCOC(=O)C(C)(C)C)OC[C@H]1S[C@@H](n2ccc(N)nc2=O)[C@@H](F)[C@@H]1O)C(=O)OCc1ccccc1` (mixture of isomers) [Example 7-3-2, (((RS)-(((2R,3S,4S,5R)-5-(4-amino-2-oxopyrimidin-1(2H)-yl)-4-fluoro-3-hydroxytetrahydrothiophen-2-yl)methoxy)(((S)-1-(benzyloxy)-1-oxopropan-2-yl)amino)phosphoryl)oxy)methyl pivalate], the IC50 was in the range of 5 to 15 µmol/L.
Turning to `CC(C)(C)C(=O)SCCOP(=O)(OCCSC(=O)C(C)(C)C)OC[C@H]1S[C@@H](n2ccc(N)nc2=O)[C@@H](F)[C@@H]1O` [Example 8, ((2R,3S,4S,5R)-5-(4-amino-2-oxopyrimidin-1(2H)-yl)-4-fluoro-3-hydroxytetrahydrothiophen-2-yl)methyl bis(S-pivaloyl-2-mercaptoethan-1-yl) phosphate], the IC50 is below 2 µmol/L.
As to `CC(C)(C)C(=O)OCOP(=O)(OCOC(=O)C(C)(C)C)OC[C@H]1O[C@@H](n2ccc(N)nc2=O)C(F)(F)C1O` (stereo in doubt) [Comparative Example 4, ((2R,3S,5R)-5-(4-amino-2-oxopyrimidin-1(2H)-yl)-4,4-difluoro-3-hydroxytetrahydrofuran-2-yl)methyl bis(pivaloyloxymethyl) phosphate, reference compound], the IC50 is above 15 µmol/L.
Then `CC(C)OC(=O)OCOP(=O)(OCOC(=O)OC(C)C)OC[C@H]1S[C@@H](n2ccc(N)nc2=O)[C@@H](F)[C@@H]1O` [Example 11-1-2, ((2R,3S,4S,5R)-5-(4-amino-2-oxopyrimidin-1(2H)-yl)-4-fluoro-3-hydroxytetrahydrothiophen-2-yl)methyl bis(isopropyloxycarbonyloxymethyl) phosphate], with 5 to 15 µmol/L.
